About 6,200 (6.6%) of roughly 94,000 compounds were called active. The shares of active, inactive and inconclusive entries below differ from those in the screen. Calls follow the shape of the dose curve; as a rule, active = well fitted inhibition curve with a large enough effect; inconclusive = small, poorly fitted or top-dose-only effect; inactive = flat fitted curve, though single readings scatter. A potency beside an inconclusive call is a rough fit, not a confirmed value.
test: Cytotoxic Profiling in HEK 293 Cell Line of Diverse Libraries Using Quantitative High-Throughput Screening; conditions: HEK 293 viability, ATP luminescence (CellTiter-Glo), 48-72 h; series mostly up to 115 µM; also: nearly all actives have a fitted effect of over 60% in size
How it was run: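 ATP-coupled CellTiter-Glo luminescence served as viability read-out, recorded 10 min after reagent addition at room temperature. HEK 293 cells, 250 cells/well, had been incubated with pintool-transferred compound for 48 or 72 hr at 37 degree Celsius.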
Potency is read from the fitted curve at half-maximal effect; tags tell the direction and shape of the fitted curve.

Question: With `CCC(=O)N1CCC2(CC1)NCCc1c2[nH]c2ccccc12` as the molecule, how does the Potency read?
Answer: inactive

Question: Which Potency does the source give for `CC1=C[C@@H](CNC(=O)CC(C)(C)CC(=O)O)[C@H](C(C)C)C[C@H]1Cc1nc2c(C)cccc2[nH]1` here?
Answer: inactive

Question: For `CN1CC(C(=O)N2CCC(c3ccccc3)CC2)NC1=O` (stereo unspecified), which Potency is on record?
Answer: inactive

Question: With `N#Cc1cccc(CN2CCn3nnc(-c4nc(-c5ccsc5)no4)c3C2=O)c1` as the molecule, how does the Potency read?
Answer: inactive

Question: Which Potency does the source give for `O=C(c1cccc(Cl)c1)N1CC(CNc2cccnc2)C2(C1)CN(c1ccccc1)C2` (stereo unspecified) here?
Answer: inconclusive: 39.8 µM [inhibitor, full curve]

Question: With `COc1cccc(C(=O)N2CCCN(C(=O)C3CC3)c3ccccc32)c1OC` as the molecule, how does the Potency read?
Answer: inconclusive: 56.2 µM [inhibitor, partial curve, poor fit]

Question: Which Potency does the source give for `CN1C(=O)CCC2(CNC(=O)c3cn[nH]c3-c3ccc(F)cc3)CCC=C12` (stereo unspecified) here?
Answer: inconclusive: 89.1 µM [inhibitor, single point]

Question: For `CS(=O)(=O)N(C1CC1)C1CCOC2(CCN(C(=O)COc3ccc(F)cc3)CC2)C1` (stereo unspecified), which Potency is on record?
Answer: inconclusive: 89.1 µM [inhibitor, single point]

Question: For `Fc1cccc(CNc2ccc3nnc(-c4ccccn4)n3n2)c1`, which Potency is on record?
Answer: inconclusive: 100 µM [inhibitor, partial curve, poor fit]

Question: For `Cc1ccc(NC(=O)C2CCN(c3ccnc4ccnn34)CC2)cc1`, which Potency is on record?
Answer: inconclusive: 126 µM [inhibitor, partial curve, poor fit]

Question: With `COC1CCC(C(=O)N2CC(COc3ccccc3)C3(C2)CN(c2ccccc2)C3)CC1` (stereo unspecified) as the molecule, how does the Potency read?
Answer: active: 89.1 µM

Question: For `CCN1c2cc(C(=O)Nc3cccc(OC)c3)ccc2C(=O)N2CCCCC21` (stereo unspecified), which Potency is on record?
Answer: active: 44.7 µM

Question: With `O=C(C1CCCC1)N1CCCC(C(=O)N2CCCC(c3nc4ncccc4[nH]3)C2)C1` (stereo unspecified) as the molecule, how does the Potency read?
Answer: inactive

Question: For `COc1cc(F)ccc1-c1cc2c(ccn2CC2CCN(C)CC2)c(N2CCOCC2)n1`, which Potency is on record?
Answer: active: 100 µM

Question: With `O=c1[nH]c(N2CCOCC2)nc2c1CCN(Cc1cc(F)c(F)cc1F)CC2` as the molecule, how does the Potency read?
Answer: inactive

Question: For `CCC1=C(C(=O)OC)C(c2ccccc2Cl)N2C(CC(=O)NCc3ccco3)=CSC2=N1` (stereo unspecified), which Potency is on record?
Answer: inconclusive: 44.7 µM [inhibitor, partial curve]

Question: With `COc1cccc(C(=O)NC(C(=O)N2CCCCC2)C2CCN(C(=O)c3ccc(F)cc3)CC2)c1` (stereo unspecified) as the molecule, how does the Potency read?
Answer: inactive

Question: Which Potency does the source give for `O=C(C1CCOCC1)N1CCCC(CCc2ccc(F)c(F)c2)C1` (stereo unspecified) here?
Answer: inconclusive: 22.4 µM [inhibitor, full curve, poor fit]

Question: With `CN1CCC(N[C@@H](Cn2cc(F)c(=O)[nH]c2=O)C(=O)O)CC1` as the molecule, how does the Potency read?
Answer: inactive

Question: With `Cc1nc2cccnc2n1CC1CCCN(S(=O)(=O)c2ccccc2)C1` (stereo unspecified) as the molecule, how does the Potency read?
Answer: inconclusive: 35.5 µM [inhibitor, partial curve, poor fit]

Question: Which Potency does the source give for `COc1ccc(-c2nc(N3CCOCC3)cc3c2CN(Cc2cnn(C)c2)C3=O)cn1` here?
Answer: inactive

Question: With `COc1cc(CNC(=O)c2ccc3c(c2)N(C)C2CCCN2C3=O)cc(OC)c1` (stereo unspecified) as the molecule, how does the Potency read?
Answer: inactive

Question: For `N#Cc1ccc(CN2CCC(C3CCNC3)CC2)cc1` (stereo unspecified), which Potency is on record?
Answer: inconclusive: 89.1 µM [inhibitor, single point]

Question: Which Potency does the source give for `CC(=O)N1CC(C(=O)NC(C)c2ccccc2)CC(c2cccc(C)c2)C1` (stereo unspecified) here?
Answer: inactive

Question: With `Cc1cc(-c2nn(-c3ccccc3F)cc2CN2CCC(N(C)C)C2)c(C)s1` (stereo unspecified) as the molecule, how does the Potency read?
Answer: inconclusive: 50.1 µM [inhibitor, partial curve, poor fit]

Question: For `Cn1nccc1-c1nccc2c(=O)cc(N3CCOCC3)oc12`, which Potency is on record?
Answer: inconclusive: 89.1 µM [inhibitor, partial curve]

Question: For `CC(=O)N1CC2(CCN(Cc3c[nH]c4ccccc34)CC2)Cc2ccccc21`, which Potency is on record?
Answer: inconclusive: 79.4 µM [inhibitor, partial curve]

Question: For `Cc1ccc(CNC(=O)c2cccc3c2CCN3C(=O)c2ccc(F)cc2)o1`, which Potency is on record?
Answer: inconclusive: 28.2 µM [inhibitor, partial curve]

Question: Which Potency does the source give for `COc1cccn(CC(=O)N(Cc2ccc(SC)cc2)C2CC2)c1=O` here?
Answer: inactive

Question: With `O=C(NCc1cccs1)c1ccc2nnc(Cc3ccc(Cl)cc3)n2c1` as the molecule, how does the Potency read?
Answer: active: 44.7 µM

Question: For `Cc1noc(C)c1CC(=O)N1CCCC1c1nc(C2CCOCC2)no1` (stereo unspecified), which Potency is on record?
Answer: inactive

Question: Which Potency does the source give for `O=C1NC2(CCCN(C(=O)c3ccc(C(F)(F)F)cc3)C2)Oc2ccccc21` (stereo unspecified) here?
Answer: inconclusive: 89.1 µM [inhibitor, single point]

Question: Which Potency does the source give for `COCC1CN(C2CCC2)CC12CCN(C(=O)c1ccccc1Cl)CC2` (stereo unspecified) here?
Answer: active: 79.4 µM

Question: Which Potency does the source give for `O=C(Nc1ccc(Cl)cc1)N1CCN(C(=O)c2cccc(-c3ccccn3)c2)CC1` here?
Answer: inconclusive: 89.1 µM [inhibitor, single point]

Question: With `Cc1ccc(Nc2ccnc(N3CCC(C(=O)NCC4CCCO4)CC3)n2)cc1` (stereo unspecified) as the molecule, how does the Potency read?
Answer: inconclusive: 79.4 µM [inhibitor, partial curve, poor fit]

Question: With `O=C1NCCCCCCN(Cc2ccncc2)[C@@H]2CN(Cc3ccc(O)cc3)CC[C@H]12` as the molecule, how does the Potency read?
Answer: inactive

Question: For `CN(Cc1ccccc1C(F)(F)F)S(=O)(=O)NCc1ccccc1`, which Potency is on record?
Answer: inconclusive: 56.2 µM [inhibitor, partial curve, poor fit]

Question: With `Cc1ccsc1C(=O)N1CCC(N2C(=O)CCC2C(=O)NCc2cccnc2)CC1` (stereo unspecified) as the molecule, how does the Potency read?
Answer: inactive

Question: For `COc1cccc2c1OCC(C(=O)N1CCC(c3noc(C)n3)CC1)C2` (stereo unspecified), which Potency is on record?
Answer: inactive

Question: Which Potency does the source give for `COc1cccc(-c2ccc(CN3CCCC(N[S+](=O)([O-])c4c(C)noc4C)C3)cc2)c1` (stereo unspecified) here?
Answer: inconclusive: 25.1 µM [inhibitor, partial curve, poor fit]

Question: Which Potency does the source give for `COC(=O)N(C)C1CCCc2ccccc21` (stereo unspecified) here?
Answer: inconclusive: 100 µM [inhibitor, partial curve, poor fit]

Question: For `COc1ccccc1Cn1c(=O)c(C(=O)NCCc2ccc(Cl)cc2)nc2cccnc21`, which Potency is on record?
Answer: inconclusive: 50.1 µM [inhibitor, partial curve, poor fit]

Question: For `CCN1C(=O)C2CC3(CCN(Cc4ccc5c(c4)CCO5)CC3)CN2C1=O` (stereo unspecified), which Potency is on record?
Answer: inconclusive: 15.8 µM [inhibitor, partial curve, poor fit]

Question: Which Potency does the source give for `O=C(C1CC1)N1CCC(N2C(=O)C3(CCCCC3)C2c2ccccc2)CC1` (stereo unspecified) here?
Answer: inconclusive: 50.1 µM [inhibitor, partial curve, poor fit]

Question: Which Potency does the source give for `COc1ccc(Nc2ncc(-c3cnn(C)c3)c3c2OCC3)cc1` here?
Answer: inconclusive: 100 µM [inhibitor, partial curve, poor fit]

Question: With `Cc1ccc(C(=O)N(CC2CCN(Cc3ccccc3F)CC2)CC2CCCO2)s1` (stereo unspecified) as the molecule, how does the Potency read?
Answer: inconclusive: 35.5 µM [inhibitor, single point]

Question: For `CC(=O)N1CCCC(N2C(=O)c3c(c(C)nn3-c3ccccc3)C2C(C)C)C1` (stereo unspecified), which Potency is on record?
Answer: inconclusive: 89.1 µM [inhibitor, single point]

Question: For `COc1ccc(CNC(=O)C2CCCCN2Cc2ccc(-c3cccs3)cc2)cc1` (stereo unspecified), which Potency is on record?
Answer: inconclusive: 50.1 µM [inhibitor, partial curve, poor fit]

Question: For `CC1=C[C@@H](CNC(=O)c2cccnc2)[C@H](C(C)C)C[C@H]1CC(=O)NC1CCCC1`, which Potency is on record?
Answer: inconclusive: 126 µM [inhibitor, partial curve, poor fit]

Question: For `Cc1cnc(C(=O)N2CCc3ccc(S(=O)(=O)Nc4cccnc4)cc3C2)cn1`, which Potency is on record?
Answer: inconclusive: 50.1 µM [inhibitor, partial curve, poor fit]

Question: With `C[C@]1(O)CCN(C(=O)c2ccc3c(c2)OCC(=O)N3)C[C@@H]1O` as the molecule, how does the Potency read?
Answer: inactive

Question: With `CN1Cc2ccc(N3CCOCC3)nc2C(C)(C(=O)NCCCn2ccnc2)C1` (stereo unspecified) as the molecule, how does the Potency read?
Answer: inactive

Question: For `COc1ccc(C2(C(=O)N3CCC(Cc4ccccc4)CC3)CCOCC2)cc1`, which Potency is on record?
Answer: inconclusive: 50.1 µM [inhibitor, partial curve, poor fit]

Question: For `Cc1cc(-c2cc3c(cn2)N(C)CCN(C)C3)ccn1`, which Potency is on record?
Answer: inconclusive: 89.1 µM [inhibitor, full curve, poor fit]

Question: For `Cc1cnccc1CN(C)Cc1ccc2c(C)cc(=O)oc2c1`, which Potency is on record?
Answer: inconclusive: 35.5 µM [inhibitor, full curve, poor fit]

Question: For `COCCN1C(=O)c2ccccc2C(C(=O)NCCC2=CCCCC2)C12CCCC2` (stereo unspecified), which Potency is on record?
Answer: inconclusive: 70.8 µM [inhibitor, partial curve]

Question: With `COc1cccc(CC2CN(Cc3ccc(F)cc3OC)CCO2)c1` (stereo unspecified) as the molecule, how does the Potency read?
Answer: inconclusive: 50.1 µM [inhibitor, partial curve, poor fit]

Question: With `O=C(c1n[nH]c2c1CCCCCC2)N1CCC(c2nc(C3CCOCC3)no2)C1` (stereo unspecified) as the molecule, how does the Potency read?
Answer: inconclusive: 39.8 µM [inhibitor, partial curve, poor fit]

Question: For `CCCCn1ccnc1C1CCCN(C(=O)c2ccccc2-c2ncn[nH]2)C1` (stereo unspecified), which Potency is on record?
Answer: inconclusive: 79.4 µM [inhibitor, single point]

Question: With `OCC1CN(Cc2ccc(Cl)cc2)CC12CCNCC2` (stereo unspecified) as the molecule, how does the Potency read?
Answer: inconclusive: 50.1 µM [inhibitor, partial curve, poor fit]

Question: Which Potency does the source give for `CCc1nccc(-c2c(-c3ccccc3)ncn2CCN2CCCCC2CO)n1` (stereo unspecified) here?
Answer: inactive

Question: Which Potency does the source give for `c1ccc(CN2CCNc3cnc(Nc4ccc(N5CCOCC5)cc4)cc3C2)cc1` here?
Answer: active: 70.8 µM

Question: Which Potency does the source give for `O=C(c1ccc2c(c1)OCO2)N1CCC2(CC1)NC(=O)N(c1ccccc1Cl)N2` here?
Answer: inconclusive: 35.5 µM [inhibitor, partial curve]

Question: Which Potency does the source give for `Cc1cc(Cl)ccc1S(=O)(=O)N1CC(c2nc(Cc3ccccc3)no2)C1` here?
Answer: inconclusive: 56.2 µM [inhibitor, partial curve, poor fit]

Question: With `COc1cccc(-c2ccc(CN3CC4CCC(C3)N4c3ccc(C(F)(F)F)cc3)cc2)c1` as the molecule, how does the Potency read?
Answer: inactive

Question: For `COc1cccc(C(=O)Nc2cc(C3CC3)nn2-c2ccccc2)c1`, which Potency is on record?
Answer: inconclusive: 100 µM [inhibitor, partial curve, poor fit]

Source: PubChem BioAssay AID1345083 (National Center for Advancing Translational Sciences (NCATS), 2018)
